# Assay results published in the supplement of paper PMC8728848.
# The list shows a part of the results.
# How the values were obtained:
# Test in all cases: glycan array binding signal (z-score within array); higher = stronger binding
# Details in all cases: glycan notation: IUPAC condensed, linker removed
# [1] = target: GlcNAc(a1-6)Gal(b1-4)GlcNAc
# Method in brief: (§1)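 Glycan array binding is given as a within-array Z-score, which can be read as non-binding when negative. The arrays, 3228 of them, came from the Consortium for Functional Glycomics database and were retained only where the protein sequence was available. Z-scores were averaged across arrays of the same protein sequence at different concentrations or buffers and across linkers.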
# [2] = target: GlcNAc(b1-2)Gal(b1-3)GalNAc
# Method in brief: as §1
# [3] = target: GlcNAc(b1-2)Man(a1-3)[GlcNAc(b1-2)Man(a1-6)]Man(b1-4)GlcNAc(b1-4)GlcNAc
# Method in brief: as §1
# [4] = target: GlcNAc(b1-2)Man(a1-3)[GlcNAc(b1-2)Man(a1-6)]Man(b1-4)GlcNAc(b1-4)[Fuc(a1-6)]GlcNAc
# Method in brief: as §1
# [5] = target: GlcNAc(b1-2)Man(a1-3)[GlcNAc(b1-4)][GlcNAc(b1-2)Man(a1-6)]Man(b1-4)GlcNAc(b1-4)GlcNAc
# Method in brief: as §1
# [6] = target: GlcNAc(b1-2)Man(a1-3)[GlcNAc(b1-4)][GlcNAc(b1-2)Man(a1-6)]Man(b1-4)GlcNAc(b1-4)[Fuc(a1-6)]GlcNAc
# Method in brief: as §1
# [7] = target: GlcNAc(b1-2)[GlcNAc(b1-4)]Man(a1-3)[GlcNAc(b1-2)Man(a1-6)]Man(b1-4)GlcNAc(b1-4)GlcNAc
# Method in brief: as §1
# [8] = target: GlcNAc(b1-2)[GlcNAc(b1-4)]Man(a1-3)[GlcNAc(b1-4)][GlcNAc(b1-2)Man(a1-6)]Man(b1-4)GlcNAc(b1-4)GlcNAc
# Method in brief: as §1
# [9] = target: GlcNAc(b1-2)[GlcNAc(b1-4)]Man(a1-3)[GlcNAc(b1-4)][GlcNAc(b1-2)[GlcNAc(b1-6)]Man(a1-6)]Man(b1-4)GlcNAc(b1-4)GlcNAc
# Method in brief: as §1
# [10] = target: GlcNAc(b1-2)[GlcNAc(b1-4)]Man(a1-3)[GlcNAc(b1-4)][GlcNAc(b1-2)[GlcNAc(b1-6)]Man(a1-6)]Man(b1-4)GlcNAc(b1-4)[Fuc(a1-6)]GlcNAc
# Method in brief: as §1
# [11] = target: GlcNAc(b1-2)[GlcNAc(b1-6)]Man(a1-6)[GlcNAc(b1-2)Man(a1-3)]Man(b1-4)GlcNAc(b1-4)GlcNAc
# Method in brief: as §1
# [12] = target: GlcNAc(b1-2)[GlcNAc(b1-6)]Man(a1-6)[GlcNAc(b1-2)Man(a1-3)]Man(b1-4)GlcNAc(b1-4)[Fuc(a1-6)]GlcNAc
# Method in brief: as §1
# [13] = target: GlcNAc(b1-2)[GlcNAc(b1-6)]Man(a1-6)[GlcNAc(b1-4)][GlcNAc(b1-2)Man(a1-3)]Man(b1-4)GlcNAc(b1-4)GlcNAc
# Method in brief: as §1
# GlcNAc(b1-3)Fuc = target: GlcNAc(b1-3)Fuc
# Method in brief: as §1
# GlcNAc(b1-3)Gal = target: GlcNAc(b1-3)Gal
# Method in brief: as §1
# [14] = target: GlcNAc(b1-3)Gal(b1-3)GalNAc
# Method in brief: as §1
# GlcNAc(b1-3)Gal(b1-4)Glc = target: GlcNAc(b1-3)Gal(b1-4)Glc
# Method in brief: as §1
# [15] = target: GlcNAc(b1-3)Gal(b1-4)GlcNAc
# Method in brief: as §1
# [16] = target: GlcNAc(b1-3)Gal(b1-4)GlcNAc(b1-2)Man(a1-3)[GlcNAc(b1-3)Gal(b1-4)GlcNAc(b1-2)Man(a1-6)]Man(b1-4)GlcNAc(b1-4)GlcNAc
# Method in brief: as §1
# [17] = target: GlcNAc(b1-3)Gal(b1-4)GlcNAc(b1-2)Man(a1-3)[GlcNAc(b1-3)Gal(b1-4)GlcNAc(b1-2)Man(a1-6)]Man(b1-4)GlcNAc(b1-4)[Fuc(a1-6)]GlcNAc
# Method in brief: as §1
# [18] = target: GlcNAc(b1-3)Gal(b1-4)GlcNAc(b1-2)[GlcNAc(b1-3)Gal(b1-4)GlcNAc(b1-6)]Man(a1-6)[GlcNAc(b1-3)Gal(b1-4)GlcNAc(b1-2)Man(a1-3)]Man(b1-4)GlcNAc(b1-4)GlcNAc
# Method in brief: as §1
# [19] = target: GlcNAc(b1-3)Gal(b1-4)GlcNAc(b1-3)Gal(b1-4)GlcNAc
# Method in brief: as §1
# [20] = target: GlcNAc(b1-3)Gal(b1-4)GlcNAc(b1-3)Gal(b1-4)GlcNAc(b1-2)Man(a1-3)[GlcNAc(b1-3)Gal(b1-4)GlcNAc(b1-3)Gal(b1-4)GlcNAc(b1-2)Man(a1-6)]Man(b1-4)GlcNAc(b1-4)GlcNAc
# Method in brief: as §1
# [21] = target: GlcNAc(b1-3)Gal(b1-4)GlcNAc(b1-3)Gal(b1-4)GlcNAc(b1-2)Man(a1-3)[GlcNAc(b1-3)Gal(b1-4)GlcNAc(b1-3)Gal(b1-4)GlcNAc(b1-2)Man(a1-6)]Man(b1-4)GlcNAc(b1-4)[Fuc(a1-6)]GlcNAc
# Method in brief: as §1
# [22] = target: GlcNAc(b1-3)Gal(b1-4)GlcNAc(b1-3)Gal(b1-4)GlcNAc(b1-2)[GlcNAc(b1-3)Gal(b1-4)GlcNAc(b1-3)Gal(b1-4)GlcNAc(b1-6)]Man(a1-6)[GlcNAc(b1-3)Gal(b1-4)GlcNAc(b1-3)Gal(b1-4)GlcNAc(b1-2)Man(a1-3)]Man(b1-4)GlcNAc(b1-4)[Fuc(a1-6)]GlcNAc
# Method in brief: as §1
# [23] = target: GlcNAc(b1-3)Gal(b1-4)GlcNAc(b1-3)Gal(b1-4)GlcNAc(b1-3)Gal(b1-4)GlcNAc(b1-2)Man(a1-3)[GlcNAc(b1-3)Gal(b1-4)GlcNAc(b1-3)Gal(b1-4)GlcNAc(b1-3)Gal(b1-4)GlcNAc(b1-2)Man(a1-6)]Man(b1-4)GlcNAc(b1-4)GlcNAc
# Method in brief: as §1
# [24] = target: GlcNAc(b1-3)Gal(b1-4)GlcNAc(b1-3)Gal(b1-4)GlcNAc(b1-3)Gal(b1-4)GlcNAc(b1-2)Man(a1-3)[GlcNAc(b1-3)Gal(b1-4)GlcNAc(b1-3)Gal(b1-4)GlcNAc(b1-3)Gal(b1-4)GlcNAc(b1-2)Man(a1-6)]Man(b1-4)GlcNAc(b1-4)[Fuc(a1-6)]GlcNAc
# Method in brief: as §1
# [25] = target: GlcNAc(b1-3)Gal(b1-4)GlcNAc(b1-3)Gal(b1-4)GlcNAc(b1-3)Gal(b1-4)GlcNAc(b1-2)[GlcNAc(b1-3)Gal(b1-4)GlcNAc(b1-3)Gal(b1-4)GlcNAc(b1-3)Gal(b1-4)GlcNAc(b1-6)]Man(a1-6)[GlcNAc(b1-3)Gal(b1-4)GlcNAc(b1-3)Gal(b1-4)GlcNAc(b1-3)Gal(b1-4)GlcNAc(b1-2)Man(a1-3)]Man(b1-4)GlcNAc(b1-4)[Fuc(a1-6)]GlcNAc
# Method in brief: as §1
# [26] = target: GlcNAc(b1-3)Gal(b1-4)GlcNAc(b1-3)Gal(b1-4)GlcNAc(b1-3)Gal(b1-4)GlcNAc(b1-3)Gal(b1-4)GlcNAc(b1-2)Man(a1-3)[GlcNAc(b1-3)Gal(b1-4)GlcNAc(b1-3)Gal(b1-4)GlcNAc(b1-3)Gal(b1-4)GlcNAc(b1-3)Gal(b1-4)GlcNAc(b1-2)Man(a1-6)]Man(b1-4)GlcNAc(b1-4)GlcNAc
# Method in brief: as §1
# [27] = target: GlcNAc(b1-3)Gal(b1-4)GlcNAc(b1-3)Gal(b1-4)GlcNAc(b1-3)Gal(b1-4)GlcNAc(b1-3)Gal(b1-4)GlcNAc(b1-2)Man(a1-3)[GlcNAc(b1-3)Gal(b1-4)GlcNAc(b1-3)Gal(b1-4)GlcNAc(b1-3)Gal(b1-4)GlcNAc(b1-3)Gal(b1-4)GlcNAc(b1-2)Man(a1-6)]Man(b1-4)GlcNAc(b1-4)[Fuc(a1-6)]GlcNAc
# Method in brief: as §1
binder,measurement,setting,value
"CC1G-10077 (Coprinopsis cinerea), A8NDT7 (protein) MALNEGVYWIRNSRFTNKVLDLDAANVAKGTSILDFNEHGTFNENHNQLWIVERFQSRDTYLIRSVHSNLVLDLSQGLSANGTPILCWTQHGGTNQQWRIEWVKDDNKTPLYRIVSVATGTAISHNEDDSSAYTVAWSVDDGPKQLWSFDPFVTPLLYRLRVKSTSRVLDLAAASADNGTLALAWEQHTAITKRNQLWWLPYRSGAEEYTIQCLETSTVADLSGGNSGNGTPIYGWQSHGGRNQQWKFEPTSDSGDYYHIKNVEGGSVMDAYMNDSQKRVGGWSNNGGDNQKWLLDPLPSPGPGWVLIQNGGTGKFLCSTPSGDIGTADGPETVYDYSVQWRFIQREYTGVYHVVNRATGAYLRQIGTSMPSIGLAEENDDELKDWWMLETYDNSEIGLASIISRWTGNVLDHYGGVSVQALDNNTENSYRSWAIIPARDWLTSFSLVNGQGGLCLAAQYAREETRLSTTANVNDFHAQWVFRKPSGSSGYTIQNKYNNHYVGGTSARWELVVCCNKYFGIRNTSTQKYLAIEDGQVTFQDQDMTDRKQCWELCSGRATDTSGNDYDLIYMDDDLLEVMIPWVGDKQGDLKHYIEKRATKKPPKDKGGWQLPAAGLIKKPKFNDIRQLLQELIEQWEWDVVNEEREQIQTLVSIDEAEARRLLGRRPHPDIVAAYQRSRSSTLFRIDRQGYFNIAGDRYVNIQGQYGDDSYFHIALPVGVRFGREQIRRFLRDSLDRSTSVTITPTTCKPPSGGPDYNRDPDSDGDNSWIKWTIAVVGTSAIKHSEL",glycan array binding signal (z-score),[1],2.9
same,glycan array binding signal (z-score),[2],-0.434
same,glycan array binding signal (z-score),[3],-0.061
same,glycan array binding signal (z-score),[4],-0.37
same,glycan array binding signal (z-score),[5],-0.448
same,glycan array binding signal (z-score),[6],-0.482
same,glycan array binding signal (z-score),[7],-0.015
same,glycan array binding signal (z-score),[8],-0.477
same,glycan array binding signal (z-score),[9],-0.353
same,glycan array binding signal (z-score),[10],-0.263
same,glycan array binding signal (z-score),[11],0.01
same,glycan array binding signal (z-score),[12],-0.057
same,glycan array binding signal (z-score),[13],-0.388
same,glycan array binding signal (z-score),GlcNAc(b1-3)Fuc,-0.435
same,glycan array binding signal (z-score),GlcNAc(b1-3)Gal,-0.416
same,glycan array binding signal (z-score),[14],-0.467
same,glycan array binding signal (z-score),GlcNAc(b1-3)Gal(b1-4)Glc,-0.371
same,glycan array binding signal (z-score),[15],-0.42
same,glycan array binding signal (z-score),[16],-0.222
same,glycan array binding signal (z-score),[17],-0.201
same,glycan array binding signal (z-score),[18],-0.03
same,glycan array binding signal (z-score),[19],-0.107
same,glycan array binding signal (z-score),[20],-0.335
same,glycan array binding signal (z-score),[21],-0.198
same,glycan array binding signal (z-score),[22],-0.106
same,glycan array binding signal (z-score),[23],-0.172
same,glycan array binding signal (z-score),[24],-0.141
same,glycan array binding signal (z-score),[25],-0.047
same,glycan array binding signal (z-score),[26],-0.107
same,glycan array binding signal (z-score),[27],0.905
